The structures appear in SMILES notation. Where only a bound is given, the exact number is not on record here.

In assay [1] the target is T1, EGFR T790M/L858R double mutant EGFR kinase (Homo sapiens, UniProt P00533, L858R/T790M). The following applies: ratio of enzyme IC50 values.
In assay [2] the target is T1, EGFR T790M/L858R double mutant EGFR kinase. Description: biochemical.

By IC50 is commonly meant the concentration that inhibits the measured activity by half. A low value points to inhibition by little substance. For the compound `C=CC(=O)Nc1cc(Nc2ncc(Cl)c(O[C@@H]3CCN(C(C)=O)C3)n2)c(OC)cc1N1CCC(N(C)C)CC1` [Compound J-47], in assay [1], the “Selective inhibitory activity against enzyme [IC50(EGFR WT)/IC50(T790M/L858R)]” value (“Selective inhibitory activity” for short) turned out to be 13.3. In assay [2], this compound registered an IC50 of 17 nM.

Consider `C=CC(=O)Nc1cc(Nc2ncc(Cl)c(O[C@H]3CCN(S(C)(=O)=O)C3)n2)c(OC)cc1N1CCC(N(C)C)CC1` [Compound J-46], for which the “Selective inhibitory activity” value in assay [1] came to 16.3. In assay [2], the IC50 is 3 nM.

Turning to `C=CC(=O)Nc1cc(Nc2nccc(OC3CCN(S(C)(=O)=O)CC3)n2)c(OC)cc1N1CCC(N(C)C)CC1` [Compound J-5, N-(2-(4-(dimethylamino)piperidine-1-yl)-4-methoxy-5-(4-(1-(methylsulfonyl)piperidine-4-oxy)pyrimidine-2-amino)phenyl)acrylamide], the “Selective inhibitory activity” value in assay [1] stood at 2.04. In assay [2], this compound gave an IC50 of 25 nM.

Consider `C=CC(=O)Nc1cc(Nc2nccc(OC3CN(C(C)=O)C3)n2)c(OC)cc1N(C)CCN(C)C` [Compound J-23], for which the “Selective inhibitory activity” value in assay [1] worked out at 2.1. The compound also displayed a concentration for half-maximal inhibition (IC50) in assay [2] of 15 nM.

With `C=CC(=O)Nc1cc(Nc2ncc(Cl)c(OC3CCCN(S(C)(=O)=O)CC3)n2)c(OC)cc1N(C)CCN(C)C` (centres unmarked) [Compound J-1, N-(5-(5-chloro-4-(1-(methylsulfonyl)azacycloheptane-4-oxy)pyrimidine-2-amino)-2-((2-(dimethylamino)ethyl)(methyl)amino)-4-methoxylphenyl)acrylamide], the “Selective inhibitory activity” value in assay [1] amounted to 6.7. Inhibition in assay [2] was half-maximal at 3 nM (IC50).

For `C=CC(=O)Nc1cc(Nc2ncc(F)c(O[C@@H]3CCN(C(C)=O)C3)n2)c(OC)cc1N1CCC(N(C)C)CC1` [Compound J-49], the “Selective inhibitory activity” value in assay [1] came to 4.2. In assay [2], the IC50 came out at 61 nM.

Regarding `C=CC(=O)Nc1cc(Nc2ncc(Cl)c(OCC3CN(S(C)(=O)=O)C3)n2)c(OC)cc1N1CCC(N(C)C)CC1` [Compound J-34], the “Selective inhibitory activity” value in assay [1] turned out to be 10.3. The same compound yielded an IC50 in assay [2] of 11 nM.

For `C=CC(=O)Nc1cc(Nc2ncc(Cl)c(N[C@H]3CCCN(CCF)C3)n2)c(OC)cc1N1CCC(N(C)C)CC1` [Compound J-68], in assay [1], the “Selective inhibitory activity” value worked out at 2.9. In assay [2], this compound gave an IC50 of 14 nM.

As for `C=CC(=O)Nc1cc(Nc2ncc(Cl)c(O[C@H]3CCN(C(C)=O)C3)n2)c(OC)cc1N1CCC(N(C)C)CC1` [Compound J-48], in assay [1], the “Selective inhibitory activity” value is on record as 15.6. Half-maximal inhibition in assay [2] (IC50) was put at 39 nM.

For `C=CC(=O)Nc1cc(Nc2nccc(OC3CCN(C(=O)OC(C)(C)C)CC3)n2)c(OC)cc1N1CCC(N(C)C)CC1` [Compound J-2, tert-butyl 4-(2-(5-acrylamido-4-(4-(dimethylamino)piperidine-1-yl)-2-methoxyphenylamino)pyrimidine-4-oxy)piperidine-1-formate], the “Selective inhibitory activity” value in assay [1] is 2.3. This compound displayed an IC50 in assay [2] of 66 nM.

On to `C=CC(=O)Nc1cc(Nc2ncc(F)c(OC3CN(S(C)(=O)=O)C3)n2)c(OC)cc1N1CCC(N(C)C)CC1` [Compound J-29], for which the “Selective inhibitory activity” value in assay [1] stood at 6. Besides, in assay [2], the IC50 was determined as 1 nM.

For `C=CC(=O)Nc1cc(Nc2ncc(C#N)c(OC3CN(S(C)(=O)=O)C3)n2)c(OC)cc1N1CCC(N(C)C)CC1` [Compound J-32], the “Selective inhibitory activity” value in assay [1] was determined as 1.8. Also, the IC50 in assay [2] came to 6 nM.

In the case of `C=CC(=O)Nc1cc(Nc2nccc(OC3CN(C(=O)c4ccc(C)cc4)C3)n2)c(OC)cc1N1CCC(N(C)C)CC1` [Compound J-24], the “Selective inhibitory activity” value in assay [1] stood at 2.4. Moreover, inhibition in assay [2] was half-maximal at 50 nM (IC50).

Consider `C=CC(=O)Nc1cc(Nc2ncc(Cl)c(OC3CN(S(C)(=O)=O)C3)n2)c(OC)cc1OCCN(C)C` [Compound J-71], for which the “Selective inhibitory activity” value in assay [1] worked out at 5.8. The compound also showed an IC50 in assay [2] of 4 nM.

`C=CC(=O)Nc1cc(Nc2ncc(Cl)c(OC3(C)CN(S(C)(=O)=O)C3)n2)c(OC)cc1N1CCC(N(C)C)CC1` [Compound J-75]: the “Selective inhibitory activity” value in assay [1] is given as 9.9. Moreover, the IC50 in assay [2] came to 47 nM.

With `C=CC(=O)Nc1cc(Nc2ncc(Cl)c(OC3CN(S(C)(=O)=O)C3)n2)c(OC)cc1N1CCN(C)CC1` [Compound J-70, N-(5-(5-chloro-4-(1-(methylsulfonyl)azetidine-3-oxy)pyrimidine-2-amino)-4-methoxy-2-(4-methylpiperazine-1-yl)phenyl)acrylamide], the “Selective inhibitory activity” value in assay [1] is on record as 14. Also, in assay [2], inhibition was half-maximal at 1 nM (IC50).

Turning to `C=CC(=O)Nc1cc(Nc2ncc(Cl)c(NC3CN(S(C)(=O)=O)C3)n2)c(OC)cc1N1CCC(N(C)C)CC1` [Compound J-60, N-(5-(5-chloro-4-(1-(methylsulfonyl)azetidine-3-amino)pyrimidine-2-amino)-2-(4-(dimethylamino)piperidine-1-yl)-4-methoxyphenyl)acrylamide], in assay [1], the “Selective inhibitory activity” value was 6. In assay [2], this compound showed an IC50 of 1 nM.

For the compound `C=CC(=O)Nc1cc(Nc2ncc(F)c(O[C@@H]3CCN(S(C)(=O)=O)C3)n2)c(OC)cc1N1CCC(N(C)C)CC1` [Compound J-51], in assay [1], the “Selective inhibitory activity” value was found to be 4.3. Moreover, the IC50 in assay [2] is 6 nM.

With `C=CC(=O)Nc1cc(Nc2nccc(OC3CN(C(C)=O)C3)n2)c(OC)cc1N1CCC(N(C)C)CC1` [Compound J-20], the “Selective inhibitory activity” value in assay [1] was determined as 2.2. Besides, half-maximal inhibition in assay [2] (IC50) required 31 nM.

In the case of `C=CC(=O)Nc1cc(Nc2ncc(Cl)c(SC3CN(S(C)(=O)=O)C3)n2)c(OC)cc1N1CCC(N(C)C)CC1` [Compound J-13, N-(5-(5-chloro-4-(1-(methylsulfonyl)azetidine-3-thio)pyrimidine-2-amino)-2-(4-(dimethylamino)piperidine-1-yl)-4-methoxylphenyl)acrylamide], the “Selective inhibitory activity” value in assay [1] is on record as more than 32. In assay [2], this compound had an IC50 of less than 0.5 nM.

For `C=CC(=O)Nc1cc(Nc2nccc(OC3CCN(S(C)(=O)=O)CC3)n2)c(OC)cc1N(C)CCN(C)C` [Compound J-4, N-(2-((2-(dimethylamino)ethyl)(methyl)amino)-4-methoxy-5-(4-(1-(methylsulfonyl)piperidine-4-oxy)pyrimidine-2-amino)phenyl) acrylamide], in assay [1], the “Selective inhibitory activity” value is 1.53. Moreover, in assay [2], half-maximal inhibition (IC50) was put at 34 nM.

`C=CC(=O)Nc1cc(Nc2ncc(Cl)c(OC3CCN(C(C)=O)CC3)n2)c(OC)cc1N1CCC(N(C)C)CC1` [Compound J-38]: in assay [1], the “Selective inhibitory activity” value turned out to be 13.1. In assay [2], this compound showed an IC50 of 13 nM.

Take `C=CC(=O)Nc1cc(Nc2ncc(F)c(NC3CN(S(C)(=O)=O)C3)n2)c(OC)cc1N1CCC(N(C)C)CC1` [Compound J-62]: the “Selective inhibitory activity” value in assay [1] is reported as 2. The compound also had an IC50 in assay [2] of 3 nM.

`C=CC(=O)Nc1cc(Nc2ncc(Cl)c(NC3CN(C(C)=O)C3)n2)c(OC)cc1N1CCC(N(C)C)CC1` [Compound J-61]: the “Selective inhibitory activity” value in assay [1] came to 10.1. The IC50 in assay [2] was determined as 18 nM.

On to `C=CC(=O)Nc1cc(Nc2ncc(Cl)c(OC3CN(S(C)(=O)=O)C3)n2)c(OC)cc1N(C)CCN(C)C` [Compound J-11, N-(5-(5-chloro-4-(1-(methylsulfonyl)azetidine-3-oxy)pyrimidine-2amino)-2-((2-(dimethylamino)ethyl)(methyl)amino)-4-methoxyphenyl)acrylamide], for which the “Selective inhibitory activity” value in assay [1] was found to be 6. Further, half-maximal inhibition in assay [2] (IC50) was put at 2 nM.

Regarding `C=CC(=O)Nc1cc(Nc2ncc(Cl)c(NC3CCN(S(C)(=O)=O)CC3)n2)c(OC)cc1N1CCC(N(C)C)CC1` [Compound J-69], in assay [1], the “Selective inhibitory activity” value was 6.2. The IC50 in assay [2] is 17 nM.

For the compound `C=CC(=O)Nc1cc(Nc2nccc(OC3CCCN(S(C)(=O)=O)CC3)n2)c(OC)cc1N(C)CCN(C)C` (centres unmarked) [Compound J-36], the “Selective inhibitory activity” value in assay [1] came out at 1.55. In assay [2], this compound showed an IC50 of 11 nM.

For `C=CC(=O)Nc1cc(Nc2ncc(Cl)c(OC3CCCN(S(C)(=O)=O)CC3)n2)c(OC)cc1N1CCC(N(C)C)CC1` (centres unmarked) [Compound J-37], the “Selective inhibitory activity” value in assay [1] is listed as 11. This compound came in with an IC50 in assay [2] of 2 nM.

Turning to `C=CC(=O)Nc1cc(Nc2ncc(Cl)c(N(C)C3CN(S(C)(=O)=O)C3)n2)c(OC)cc1N1CCC(N(C)C)CC1` [Compound J-73], in assay [1], the “Selective inhibitory activity” value is given as 8. The compound further returned a half-maximal inhibitory concentration (IC50) in assay [2] of 3 nM.

On to `C=CC(=O)Nc1cc(Nc2ncc(Cl)c(OCC3CN(C(C)=O)C3)n2)c(OC)cc1N1CCC(N(C)C)CC1` [Compound J-33], for which the “Selective inhibitory activity” value in assay [1] worked out at 10.9. The compound further gave an IC50 in assay [2] of 55 nM.

On to `C=CC(=O)Nc1cc(Nc2ncc(Cl)c(OC3CN(C(C)=O)C3)n2)c(OC)cc1N(C)CCN(C)C` [Compound J-28], for which, in assay [1], the “Selective inhibitory activity” value is 16.3. In addition, the IC50 in assay [2] worked out at 3 nM.

Turning to `C=CC(=O)Nc1cc(Nc2ncc(Cl)c(OC3CN(CCF)C3)n2)c(OC)cc1N1CCC(N(C)C)CC1` [Compound J-54], in assay [1], the “Selective inhibitory activity” value was determined as 10.4. In assay [2], inhibition was half-maximal at 36 nM (IC50).

In the case of `C=CC(=O)Nc1cc(Nc2nccc(OC3CN(c4cnc5c(ccn5C)c4)C3)n2)c(OC)cc1N1CCC(N(C)C)CC1` [Compound J-18], the “Selective inhibitory activity” value in assay [1] worked out at 1.03. In assay [2], this compound showed an IC50 of 29 nM.

For the compound `C=CC(=O)Nc1cc(Nc2ncc(Cl)c(N[C@@H]3CCCN(CCF)C3)n2)c(OC)cc1N1CCC(N(C)C)CC1` [Compound J-67], in assay [1], the “Selective inhibitory activity” value stood at 2. Also, the IC50 in assay [2] was 1 nM.

For the origin of these results see patent US9879008B2, “2,3,4,6-tetra-substituted benzene-1,5-diamine derivatives, preparation method therefor and medicinal use thereof” (SHANGHAI HAIYAN PHARMACEUTICAL TECHNOLOGY CO., LTD., priority 2014, dated 2018).
